Results: article PMC4336329 (PLoS ONE, 2015)
The campaign covered roughly 310,000 compounds. About 2,200 (0.71%) showed an effect of 50% or more. The effect is printed as a negative number. The list shows a part of the results.

The compounds below were run against human ether-à-go-go-related gene (hERG) potassium channel (human, UniProt Q12809) (assay: primary screen, population patch clamp on CHO cells stably expressing hERG).
Sequence of human ether-à-go-go-related gene (hERG) potassium channel (Q12809 whole entry, looked up): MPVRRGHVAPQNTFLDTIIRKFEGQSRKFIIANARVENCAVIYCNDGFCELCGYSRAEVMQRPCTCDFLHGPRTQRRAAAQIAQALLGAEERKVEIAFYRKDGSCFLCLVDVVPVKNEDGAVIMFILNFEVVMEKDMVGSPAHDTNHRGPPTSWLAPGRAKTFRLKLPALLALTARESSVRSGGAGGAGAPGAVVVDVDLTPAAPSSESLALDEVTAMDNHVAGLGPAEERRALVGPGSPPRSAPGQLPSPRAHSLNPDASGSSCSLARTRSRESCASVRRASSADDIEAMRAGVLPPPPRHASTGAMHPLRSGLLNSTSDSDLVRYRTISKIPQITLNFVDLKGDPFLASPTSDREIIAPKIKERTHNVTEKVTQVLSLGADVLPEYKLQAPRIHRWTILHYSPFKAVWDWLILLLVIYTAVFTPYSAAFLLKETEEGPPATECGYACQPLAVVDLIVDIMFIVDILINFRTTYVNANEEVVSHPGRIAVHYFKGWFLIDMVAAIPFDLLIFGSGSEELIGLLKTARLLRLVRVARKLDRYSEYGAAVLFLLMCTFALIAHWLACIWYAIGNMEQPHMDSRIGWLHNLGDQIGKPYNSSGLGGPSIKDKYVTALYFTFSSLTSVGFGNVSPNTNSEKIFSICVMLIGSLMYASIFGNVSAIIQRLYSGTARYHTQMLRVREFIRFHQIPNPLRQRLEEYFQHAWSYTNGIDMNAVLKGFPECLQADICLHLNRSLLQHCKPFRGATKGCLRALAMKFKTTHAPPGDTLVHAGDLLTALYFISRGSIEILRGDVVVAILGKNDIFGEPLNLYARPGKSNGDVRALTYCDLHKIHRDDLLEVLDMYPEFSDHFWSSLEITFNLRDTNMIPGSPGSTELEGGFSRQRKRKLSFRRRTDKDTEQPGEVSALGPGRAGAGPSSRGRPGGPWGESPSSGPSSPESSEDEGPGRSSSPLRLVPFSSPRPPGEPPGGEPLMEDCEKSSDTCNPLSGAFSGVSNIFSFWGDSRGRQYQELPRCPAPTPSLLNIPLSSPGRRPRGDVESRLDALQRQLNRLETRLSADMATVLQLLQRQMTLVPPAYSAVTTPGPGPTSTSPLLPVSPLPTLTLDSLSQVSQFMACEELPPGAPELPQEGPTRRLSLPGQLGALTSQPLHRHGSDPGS

Row | SMILES | hERG current change (%, negative = inhibition) at 1uM
1 | O=C(Cn1nnc(-c2cccs2)n1)OC1CCCCC1 | 7.88%
2 | O=C(COc1cccc2ccccc12)NNC(=O)c1cccs1 | 8.8%
3 | CCc1ccc(OCC(=O)N2CCN(c3ccccc3F)CC2)cc1 | 18.5%
4 | COc1ccc(Cc2noc(CN3CCN(C4CCc5ccccc5C4)CC3)n2)cc1OC (centres unmarked) | -32%
5 | COc1ccc(-n2nc(C(=O)NCC(=O)N3CCCCCC3)c3ccccc3c2=O)cc1Cl | 6.12%
6 | CCOC(=O)C1CCN(S(=O)(=O)c2ccc3c(c2)N(C(C)=O)CCO3)CC1 | -31.2%
7 | Cc1ccnc(NC(=O)CCC(=O)N(CC(=O)NC(C)(C)C)c2ccc(F)c(Cl)c2)c1 | 16%
8 | CC1(C)CC(NC(=O)C2CCN(S(=O)(=O)c3ccc(F)cc3)CC2)CC(C)(C)N1 | 16.9%
9 | O=Cc1cn(CC(=O)N2CCCc3ccccc32)c2ccccc12 | 17.3%
10 | CCCN(CC(=O)Nc1ccc(C(N)=O)cc1)CC(=O)Nc1ccc(Cl)cc1Cl | 3.6%
11 | CN(C)C(CNc1ccc(C(N)=O)cc1[N+](=O)[O-])c1ccccc1 (centres unmarked) | 6.92%
12 | N#CCn1nnc(-c2ccc3c(c2)OCO3)n1 | 6.15%
13 | CCOc1cc(NC(=O)C2CCCO2)c(OCC)cc1NC(C)=O (centres unmarked) | 14.2%
14 | CCOC(=O)c1sc(N(Cc2ccccc2)C(=O)CSc2nnc(C3CC3)n2N)nc1C | -5.91%
15 | Cc1ccc(C(=O)N/C(=C\c2ccco2)C(=O)NCCN2CCOCC2)cc1 | 5.85%
16 | CCC(C(=O)NCCN1CCN(C)CC1)n1c(C)c2cnn(-c3ccccc3)c(=O)c2c1C (centres unmarked) | 2.64%
17 | O=C(COc1cc(=O)n2c(n1)SCCC2)c1ccccc1 | -1.27%
18 | CCOCCc1nnc(N)s1 | 8.55%
19 | O=C(c1ccc(Cl)cc1)c1cnc(Nc2ccccc2Cl)s1 | 1.51%
20 | CCCCc1cc(=O)oc2cc(O)cc(O)c12 | 8.24%
21 | O=C(CN1C(=O)NC2(CCCC2)C1=O)NNC(=O)c1ccccc1F | 18.3%
22 | O=C(O)c1cc2nc3c(c(C(F)(F)F)n2n1)CCCC3 | 16.1%
23 | CCc1noc(C)c1C(=O)N1CCCC(C(=O)c2cc(F)ccc2OC)C1 (centres unmarked) | 9.19%

Row | SMILES | hERG current change (%, negative = inhibition) at 1uM
24 | NC(=O)Cn1c(=O)n(CCc2ccccc2)c(=O)c2c3c(sc21)CCCC3 | -13%
25 | O=C(Nc1ccccc1N1CCCC1)C1CCN(S(=O)(=O)c2ccc(F)cc2)CC1 | 11.5%
26 | O=C(NC(Cc1ccccc1)C(=O)N1CCN(S(=O)(=O)c2ccccc2)CC1)c1ccccc1 (centres unmarked) | 0.385%
27 | CSc1cccc(NC(=O)C2CCN(S(=O)(=O)c3ccc(F)cc3)CC2)c1 | 6.66%
28 | C=C1CC[C@@]23CC[C@]4(C)[C@@](OC2=O)([C@@H]3C1)[C@H]1O[C@H]1C1[C@@]2(C)CC[C@H](O)C(C)(C)C2CC[C@]14C (some centres unmarked) | 3.47%
29 | NS(=O)(=O)c1ccc(CCNC(=O)COC(=O)c2cc([N+](=O)[O-])ccc2N2CCOCC2)cc1 | 17.3%
30 | CN1C(=S)NC(C)(C)CC1(C)c1ccc(O)cc1O (centres unmarked) | 14.5%
31 | CN(C)NC(=O)c1ccsc1NC(=O)c1ccc(S(=O)(=O)N(C)C)cc1 | 2.87%
32 | CN1C(=O)C(C)(C)c2cc(S(=O)(=O)N3CCCC(C(=O)NCc4ccc(Cl)cc4)C3)ccc21 (centres unmarked) | 5.86%
33 | O=C(Cn1nnc(-c2ccc(Cl)cc2)n1)NCc1ccco1 | 11%
34 | S=C(NCc1ccco1)Nc1ccccc1Cl | -0.927%
35 | COc1ccc(OC)c(C2/C(=C(/O)c3cnn(-c4ccccc4)c3C)C(=O)C(=O)N2CCN(C)C)c1 (centres unmarked) | 15%
36 | CCn1c(=O)cc(O)c2c(=O)n(C)c(=O)n(C)c21 | 10.1%
37 | Cc1ccc(C)c(-n2c(Cc3cc(=O)[nH]c(=O)[nH]3)nnc2SC(C)C)c1 | 5.78%
38 | COc1ccc(OC)c(NC(=O)CCn2cccc2)c1 | 7.06%
39 | Cc1noc(C)c1S(=O)(=O)N1CCC(C(=O)N2CCN(Cc3ccc4c(c3)OCO4)CC2)CC1 | 4.13%
40 | O=C1NCCN1Cc1ccccc1F | 7.03%
41 | O=C(c1ccco1)N1N=C(c2ccncc2)CC1(O)C(F)(F)F (centres unmarked) | -2.1%
42 | CC(C)(C)NC(=O)N1CCn2cccc2C1c1ccccc1F (centres unmarked) | 12.8%
43 | c1ccc(SCc2nc(-c3ccncc3)no2)cc1 | 11.1%
44 | OCCCNc1nc(-c2ccccc2)nc2c1oc1ccccc12 | 16.8%
45 | Cc1cccn2cc(-c3cc4ccccc4oc3=O)nc12 | 11.6%
46 | NC(=O)C1=C[C@@H](c2ccccc2)C[C@@H](OCCCCO)O1 | 16.7%

Row | SMILES | hERG current change (%, negative = inhibition) at 1uM
47 | CN(C)Cc1cc(C(C)(C)C)cc(C(C)(C)C)c1O | 5.8%
48 | COc1ccc(S(=O)(=O)N2CCN(c3ccc(C)cc3C)CC2)cc1OC | 4.67%
49 | Cc1ccc(S(=O)(=O)N2CCCCC2)cc1NC(=O)COC(=O)Cc1c(F)cccc1Cl | 14.5%
50 | CC1CCc2c(sc(NC(=O)C3=COCCO3)c2C(N)=O)C1 (centres unmarked) | 6.96%
51 | CC(=O)c1ccc(NC(=O)/C(=C\c2ccco2)NC(=O)c2ccco2)cc1 | 4.96%
52 | CC(=O)N1N=C(c2ccncc2)OC12CCCCCC2 | 10.9%
53 | CCCCOc1ccc(C(=O)NCc2ccncc2)cc1 | 4.06%
54 | NC(=O)CSc1nnc(-c2cnccn2)n1Cc1ccco1 | 10.9%
55 | CCOc1ccc(S(=O)(=O)N(CC(=O)NCc2cccnc2)c2ccc(C)cc2)cc1 | -52.4%
56 | Cc1nc(NN)c2c3c(sc2n1)COC(C)(C)C3 | 9.19%
57 | CC(OC(=O)CCc1cc(C(C)(C)C)c(O)c(C(C)(C)C)c1)C(=O)NC1CC1 (centres unmarked) | 6.76%
58 | C=CC(=O)NC(NC(=O)C=C)c1ccc(Br)cc1 | 3.98%
59 | CCCCn1ccnc1C | 7.41%
60 | O=C(Cc1ccc2c(c1)OCCO2)N1CCN(S(=O)(=O)c2ccccc2C(F)(F)F)CC1 | -3.22%
61 | CCN=C(NCC)SC1CC(=O)N(c2ccc(OCC)cc2)C1=O (centres unmarked) | 7.6%
62 | O=C(COc1ccc(S(=O)(=O)NC2CCCC2)cc1)N1CCCCCC1 | 15.9%
63 | Cc1ccc(Nc2nc(C(=O)N3CCC(C(=O)N4CCN(C)CC4)CC3)cs2)cc1 | 14.2%
64 | CCC(C)[C@@H](C(=O)N1CCNCC1)n1cc(CCCN=C(N)N)nn1.Cl (some centres unmarked) | 12%
65 | CCOC(=O)C1CCCN(S(=O)(=O)c2ccc3c4c(cccc24)C(=O)N3CC)C1 (centres unmarked) | -27.6%
66 | CCOC(=O)C(=CNc1nc2ccc(C(=O)OCC)cc2s1)C(=O)OCC | 15.8%
67 | COc1ccccc1-c1nnc(SCC(=O)Nc2c(Cl)cccc2Cl)o1 | 0.12%
68 | Cc1ccc(NC(=O)c2oc3ccccc3c2NC(=O)C2CC2)cc1 | 4.39%
69 | CCN(CCn1cccn1)C(=O)c1cc(COc2ccc(F)cc2Cl)on1 | 2.39%

Row | SMILES | hERG current change (%, negative = inhibition) at 1uM
70 | CCOC(=O)c1cc(-c2cccc(C(F)(F)F)c2)nc2nc(SC)[nH]c(=O)c12 | -11%
71 | O=C(CSc1nnc(-c2cccnc2)n1C1CCCCC1)NC1CCCC1 | -10%
72 | CCOc1ccccc1CN1CCNC(=O)C1CC(=O)N(C)CCC1CCOCC1 (centres unmarked) | 9.31%
73 | O=C(CCn1cccc1)NC1CCCc2ccccc21 (centres unmarked) | 10.9%
74 | O=C1CC2(CCCCC2)Oc2ccc(O)cc21 | -4.76%
75 | COc1ccc(NC(=O)N2CCCc3ccccc32)cc1OC | 14.3%
76 | O=C(CCN1C(=O)c2ccccc2C1=O)NC(=S)Nc1ccccc1 | 5.81%
77 | O=C(O)c1ccc2c(c1)C(=O)/C(=C\c1ccco1)C2=O | -0.191%
78 | Cc1cc(C)c(O)c(-c2cc(C(=O)Nc3ccc(S(=O)(=O)N4CCOCC4)cc3)[nH]n2)c1 | 1.78%
79 | COC(=O)[C@@H]1[C@@H](C)N(Cc2ccccc2)C(=O)N[C@H]1c1cccc(C(F)(F)F)c1 | 13.8%
80 | CCSCc1nnc(SCC(=O)Nc2nc3ccccc3s2)n1C | 0.904%
81 | CCOC(=O)C1=C(C)NC(=O)/C1=C\N(C)C | 10.8%
82 | CCN(CC)S(=O)(=O)c1ccc(N2CCOCC2)c(NC(=O)Cc2ccccc2)c1 | -18.5%
83 | CCc1nnc(NC(=O)CSc2nnc(-c3ccc(O)cc3)n2C)s1 | 12.8%
84 | O=C(Oc1c(Br)cc([N+](=O)[O-])cc1Br)c1cccnc1 | 12.8%
85 | COc1ccc(-c2cc(C3CC3)nc3sc(C#N)c(N)c23)cc1 | 9.96%
86 | O=C(c1ccc2c(c1)ncn2C1CCCCCC1)N1CCC2(CC1)OCCO2 | -1.61%
87 | O=C(Nc1ccc(F)cc1)Nc1ccc(Oc2ncnc3cc(Cl)ccc23)nc1 | 10.5%
88 | Cc1csc(NC(C)c2nc3cc(C(F)(F)F)ccc3n2CCCO)n1 (centres unmarked) | 7.5%
89 | CCC(=O)c1ccc(OCC(O)CN2CCN(S(=O)(=O)c3ccc(NC(C)=O)cc3)CC2)cc1 (centres unmarked) | 8.57%
